# Laboratory results from PubChem BioAssay AID2546 (National Center for Advancing Translational Sciences (NCATS), 2010).
# About 11,000 (3.5%) of roughly 310,000 compounds were called active. Inconclusive means that the source gave no clear call. Such entries were picked first, then a sample of the others. The call rests on the fitted dose curve; in most records, active means well fitted inhibition curve with a large enough effect; inconclusive means small, poorly fitted or top-dose-only effect, or effect the other way; inactive means flat fitted curve, though single readings scatter. Potencies of inconclusive entries are left out as doubtful fits. More than one record can exist for a structure, and the calls need not agree.
# Experiment: VP16 counterscreen qHTS for inhibitors of ROR gamma transcriptional activity;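 further: Gal4-VP16 expression switched on by copper sulfate through the metallothionein promoter; nearly all actives have a fitted effect of over 50% in size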
# Details: Drosophila S2 Gal4-VP16 UAS-luciferase, luminescence, 20 h; activity, negative = inhibition: at 53.6 µM (top of the series)
# On the % scale 0 is the no-effect control and ±100 the full control effect; potency means the concentration at half of the fitted maximal effect; tags describe the fitted curve by direction and shape.
SMILES,Potency,"activity, negative = inhibition"
Cc1ccc(Nc2nc3nonc3[nH]c2=O)cc1Cl,"inconclusive [inhibitor, single point]",–
O=C(CSc1nnc2scc(-c3ccccc3)n12)NCC1CCCO1 (stereo not given),"inconclusive [activator, single point]",–
COCCCn1c(SCC(=O)Nc2ccc(NC(=O)c3ccco3)c(OC)c2)nc2ccccc2c1=O,"inconclusive [inhibitor, single point]",–
C=CCNc1nc(N)c(C(=C(C#N)C#N)c2ccc(Br)cc2)s1,"inconclusive [inhibitor, single point]",–
CCCCn1c(NC(=O)C2CCCCC2)nc2ccccc21,active: 2.82 µM,–
CC1CCN(C(=O)c2ccc3c(Cl)c4c(nc3c2)CCCC4)CC1,"inconclusive [activator, single point]",–
COCCNC(=S)N/N=C(\C)c1ccc(Cl)c(Cl)c1,active: 4.47 µM,–
CN(C)c1ncc2nc(-c3ccccc3)c(=O)n(C3CC3)c2n1,inactive,–
CC1CCN(c2ccccc2NC(=O)c2ccc(N3CCOCC3)c([N+](=O)[O-])c2)CC1,inactive,–
CCOc1ccccc1C(=O)N/N=C/c1cccc2cccnc12,"inconclusive [inhibitor, single point]",–
COc1ccc(-c2cc(=O)c3cc(O)ccc3o2)cc1,"inconclusive [inhibitor, partial curve, poor fit]",–
CCOC(=O)Cn1c(=O)oc2cc(S(=O)(=O)NCCCc3ccccc3)ccc21,active: 12.6 µM,–
CC1=C(C)/C(=N\OC(=O)/C=C/c2ccccc2)C=CC1=O,"inconclusive [inhibitor, partial curve]",–
CCOc1ccc(C2Sc3ccccc3NC3=C2C(=O)OC3)cc1 (stereo not given),inactive,–
On1c(-c2ccc(Cl)cc2)nc2ccccc21,"inconclusive [inhibitor, single point]",–
CCc1cccc(OC2OC(CO)C(O)C(O)C2NC(C)=O)c1 (stereo not given),inactive,–
CCN(CC)C(=O)C1CCCN(C(=O)c2cc(COc3ccc4ncccc4c3)on2)C1 (stereo not given),"inconclusive [inhibitor, single point]",–
O=C(CSc1ncnc2c1cnn2-c1ccccc1)Nc1ccccc1,"inconclusive [inhibitor, single point]",–
CC(NC(=S)NCc1ccccc1)C12CC3CC(CC(C3)C1)C2 (stereo not given),"inconclusive [inhibitor, single point]",–
CCn1cc(C(=O)NCc2ccccc2)c(=O)c2cc(F)c(N3CCN(C(=O)c4ccco4)CC3)cc21,inactive,–
COc1ccc(NC(=O)Cn2nnc(C(=O)NCCc3ccccc3)c2N)c(OC)c1,"inconclusive [inhibitor, single point]",–
CC(=O)c1c(N2CCOCC2)[nH]c(-c2ccccc2)nc1=S,active: 5.01 µM,–
Cn1c(Cl)cnc1C1CC(=O)c2cc(Cl)ccc2O1 (stereo not given),–,inactive: -1.2% [at 0.365 µM]
CC(C)C(C)/C=C/C(C)C1CCC2C3=CCC4CC(=O)CC[C@@]4(C)C3CC[C@]21C (stereo not given in full),inactive,–
COc1cc2ccccc2cc1C(=O)NC(=S)Nc1nnn(C)n1,active: 1.12 µM,–

SMILES,Potency,"activity, negative = inhibition"
COc1cccc(-n2c([S-])c(C(=O)Nc3ccc(S(=O)(=O)N4CCOCC4)cc3)[n+]3cc(C(N)=O)ccc23)c1,inactive,–
Cc1cc(C)cc(NC(=O)c2c(C)nc3ccccn23)c1,"inconclusive [activator, single point]",–
COc1ccc(C2CC(c3cccs3)=Nc3ccccc3S2)cc1 (stereo not given),"inconclusive [inhibitor, single point]",–
O=C(c1cccc(F)c1)N(Cc1nc2ccccc2c(=O)[nH]1)C1CCCC1,"inconclusive [inhibitor, single point]",–
CC(C)CSc1nnc2c3ccccc3n(C)c2n1,"inconclusive [activator, full curve]",–
CCCc1c(OCCCCc2nn[nH]n2)ccc(C(C)=O)c1O,active: 12.6 µM,–
C=CCc1cccc2cc(C(=O)Nc3ccc(CC(=O)O)cc3)c(=O)oc12,"inconclusive [inhibitor, full curve]",–
CC(C)Oc1ccc(C(=O)Nc2ncn[nH]2)cc1,"inconclusive [inhibitor, single point]",–
Cc1occc1C(=O)Nc1sc2c(c1C(N)=O)CCCCC2,"inconclusive [inhibitor, single point]",–
CC1Sc2ccc(S(=O)(=O)CCC(=O)N(C)Cc3ccccc3)cc2NC1=O (stereo not given),inactive,–
COc1cc(/C=C/C(=O)Nc2cc(C(F)(F)F)ccc2Cl)cc(OC)c1OC,"inconclusive [inhibitor, single point]",–
COCc1cc(C)nc(SCC(=O)Nc2ccccc2N2CCOCC2)c1C#N,inactive,–
O=C(Cc1cccs1)N/N=C/C=C/c1ccco1,"inconclusive [inhibitor, single point]",–
CC(=O)N1c2ccc(S(=O)(=O)N3CCC(C(=O)Nc4cccc(C)c4)CC3)cc2CC1C (stereo not given),"inconclusive [inhibitor, single point]",–
COc1ccccc1N1CCN(C(=O)CN(C)S(=O)(=O)c2ccc3c(c2)c(=O)n(C)c(=O)n3C)CC1,inactive,–
CCOC(=O)N1CCN(C(=S)NC(=O)c2ccc(Br)cc2)CC1,active: 1.26 µM,–
Cc1nn(C)c(N)c1C(O)(c1nccn1C)C(F)(F)F (stereo not given),inactive,–
COc1ccc(C(=O)Nc2nc3ccccc3s2)cc1,"inconclusive [inhibitor, single point]",–
CCOC(=O)c1cnn(-c2ccc([N+](=O)[O-])cc2)c1N,inactive,–
Cc1ccc(Cn2cc(/C=N/Nc3ccc([N+](=O)[O-])cn3)c3ccccc32)cc1,active: 7.94 µM,–
COCCNC(=S)N/N=C(\C)c1ccc(C)c([N+](=O)[O-])c1,active: 3.98 µM,–
Oc1ccc(Br)cc1CNc1ccccn1,inactive,–
CC(C)/C=C(/C(=O)c1ccc(Cl)cc1Cl)n1cncn1,"inconclusive [inhibitor, single point]",–
O=C(Cc1ccccc1)NCc1ccncc1,"inconclusive [inhibitor, single point]",–
Clc1cccc(Nc2nc(N3CCOCC3)nc(N3CCOCC3)n2)c1,inactive,–

SMILES,Potency,"activity, negative = inhibition"
CSCCNC(=O)c1ccc(C(C)(C)C)cc1,"inconclusive [inhibitor, single point]",–
COc1cccc(/C=N/NC(=O)NC2CCCCC2)c1O,active: 8.91 µM,–
Cn1ccnc1SCCNC(=O)CCc1nnc(CCc2ccccc2)o1,inactive,–
CCc1nnc(NC(=O)[C@@H](NC(=O)c2cccc(S(=O)(=O)N(CC)CC)c2)C(C)C)s1,"inconclusive [inhibitor, single point]",–
COC(=O)c1cc(NC(=O)c2ccc(Cn3cc(Cl)cn3)o2)cc(C(=O)OC)c1,"inconclusive [inhibitor, single point]",–
Cc1c(NC(=S)NC(=O)c2cc3ccccc3o2)cccc1C(=O)O,"inconclusive [inhibitor, single point]",–
O=C(NC(=S)N1CCN(Cc2ccccc2)CC1)c1cccnc1,active: 2.51 µM,–
O=C(CSc1ccccc1)Nc1nnc(COc2ccc(Cl)cc2)s1,"inconclusive [inhibitor, single point]",–
CNC(=S)NN(c1ccccc1)c1ccccc1,"inconclusive [inhibitor, single point]",–
COCC(=O)Nc1nc(-c2ccc([N+](=O)[O-])cc2)cs1,inactive,–
CCCCC(=O)/C=C/n1c(=S)oc2ccccc21,"inconclusive [inhibitor, single point]",–
Cc1ccc(NC(=S)NC(C)(C)C)c([N+](=O)[O-])c1,active: 7.94 µM,–
NNc1nnc(-c2ccccc2)c(-c2ccccc2)n1,"inconclusive [inhibitor, single point]",–
COc1ccccc1N1CCN(C(c2ccccc2Cl)c2nnnn2C(C)(C)C)CC1 (stereo not given),"inconclusive [inhibitor, single point]",–
Cc1ccc(-n2c(COc3ccccc3)n[nH]c2=S)cc1,"inconclusive [inhibitor, single point]",–
CCC1=NN(C(=O)Cc2ccc([N+](=O)[O-])cc2)C(O)(C(F)(F)F)C1 (stereo not given),inactive,–
Fc1cccc(NC(=S)N2CCc3ccccc32)c1,"inconclusive [inhibitor, single point]",–
CCCCOc1ccc(C(=O)CCN2CCOCC2)cc1,"inconclusive [inhibitor, single point]",–
COc1ccc(NC(=O)CSc2nc(N)c(NC(=O)c3cccs3)c(=O)[nH]2)cc1,inactive,–
CCOC(=O)c1c(NC(C)=O)sc2c1CCC(C=O)=C2Sc1ccccc1,"inconclusive [inhibitor, single point]",–
C=C(C)COc1ccc(-c2n[nH]c(C)c2-c2ccc(Br)cc2)c(O)c1,active: 4.47 µM,–
Cc1ccc(NC(=S)Nc2ccc3cn[nH]c3c2)cc1,"inconclusive [inhibitor, single point]",–
COc1ccc(N2CCN(Cc3ccc(Br)s3)CC2)cc1,"inconclusive [inhibitor, single point]",–
CN1CCN(S(=O)(=O)c2ccc([N+](=O)[O-])cc2)CC1,inactive,–
Cn1nc([N+](=O)[O-])nc1Oc1ccc(C(C)(C)C)cc1,"inconclusive [inhibitor, single point]",–
